Publication PMC4336329 (PLoS ONE, 2015)
Screen size: about 310,000 compounds; about 14,000 (4.5%) showed an effect of 50% or more. The effect is printed as a negative number. The list shows a part of the results.

target: human ether-à-go-go-related gene (hERG) potassium channel (human, UniProt Q12809); assay: primary screen, population patch clamp on CHO cells stably expressing hERG
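Note: peak tail current of the secondary pulse compared with the same well before compound.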

Chain of human ether-à-go-go-related gene (hERG) potassium channel (Q12809 whole entry, looked up): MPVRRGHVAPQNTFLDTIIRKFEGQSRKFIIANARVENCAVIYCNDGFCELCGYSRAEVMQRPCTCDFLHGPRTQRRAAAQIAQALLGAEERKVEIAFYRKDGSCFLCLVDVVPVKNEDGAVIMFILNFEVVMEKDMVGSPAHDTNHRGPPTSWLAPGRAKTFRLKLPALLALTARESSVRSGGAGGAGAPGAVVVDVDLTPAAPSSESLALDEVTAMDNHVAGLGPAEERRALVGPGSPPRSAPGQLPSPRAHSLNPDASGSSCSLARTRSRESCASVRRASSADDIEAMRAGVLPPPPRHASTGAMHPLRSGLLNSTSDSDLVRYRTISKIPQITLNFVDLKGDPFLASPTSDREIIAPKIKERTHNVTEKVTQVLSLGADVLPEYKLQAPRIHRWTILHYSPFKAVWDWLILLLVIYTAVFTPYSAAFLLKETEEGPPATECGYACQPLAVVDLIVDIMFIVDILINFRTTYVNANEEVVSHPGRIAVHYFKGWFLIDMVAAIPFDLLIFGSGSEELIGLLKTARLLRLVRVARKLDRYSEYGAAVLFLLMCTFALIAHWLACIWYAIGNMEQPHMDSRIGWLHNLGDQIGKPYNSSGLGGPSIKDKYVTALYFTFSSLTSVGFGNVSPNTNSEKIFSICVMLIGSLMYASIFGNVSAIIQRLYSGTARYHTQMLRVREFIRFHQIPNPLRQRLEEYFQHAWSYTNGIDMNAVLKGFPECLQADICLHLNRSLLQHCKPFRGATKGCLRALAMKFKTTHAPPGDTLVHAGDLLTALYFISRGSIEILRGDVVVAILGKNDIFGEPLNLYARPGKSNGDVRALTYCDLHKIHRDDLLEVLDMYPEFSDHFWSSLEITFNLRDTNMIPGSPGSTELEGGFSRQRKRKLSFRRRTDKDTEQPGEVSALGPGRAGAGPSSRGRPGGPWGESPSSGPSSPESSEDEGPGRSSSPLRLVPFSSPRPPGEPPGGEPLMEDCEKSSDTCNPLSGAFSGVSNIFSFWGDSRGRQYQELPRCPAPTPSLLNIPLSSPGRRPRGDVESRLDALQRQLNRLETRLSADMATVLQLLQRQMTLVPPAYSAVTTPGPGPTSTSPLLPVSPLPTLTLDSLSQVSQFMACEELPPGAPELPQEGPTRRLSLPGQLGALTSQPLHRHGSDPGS

In order of falling “hERG current change (%, negative = inhibition) at 10uM” value:
1. CC12CC3(C)CC(C)(C1)CC(C(=O)NCC(=O)O)(C2)C3  33.9%
2. COC(=O)c1cn(NC(=O)c2cccc(F)c2)c(=O)c2ccccc12  26.7%
3. COc1cc(OC)c([C@H]2C=C(C)[C@H]3C[C@@H]2C3(C)C)c(OC)c1  24.3%
4. O=C(Nc1ccccc1Cl)OC1CCCCC1  22.7%
5. COc1ccc(/C(C)=N/NC(=S)NCCc2ccccc2)cc1  21.6%
6. COc1ccc(CC(=O)NC2CCN(Cc3nnnn3C(C)(C)C)CC2)cc1OC  20.7%
7. CCCCC1=CC2=CC(=O)C(C)(O)C(=O)C2=CO1 (stereo not drawn)  20.3%
8. O=C(Cc1ccccc1)Oc1cccc(-n2cnnn2)c1  18.3%
9. N#Cc1c(/N=C/c2ccc(-c3ccc(C(=O)O)c(Cl)c3)o2)sc2c1CCCC2  17.2%
10. CCOC(=O)/C(=N\Nc1ccccc1Cl)N1CCN(c2ccccc2OC)CC1  16.5%
11. O=C(Nc1ccccn1)C1COc2ccccc2O1 (stereo not drawn)  16.1%
12. Br.CC(C)=NNc1nc(-c2ccc(N3C(=O)CCC3=O)cc2)cs1  15.3%
13. CC1CC1c1ccc(/C=C(\C#N)C(=O)Nc2ccc(Cl)cc2)o1 (stereo not drawn)  15.1%
14. CC12CCC(C(=O)NCc3ccccn3)(OC1=O)C2(C)C (stereo not drawn)  14.4%
15. CC(=O)n1nc2nc(C)cc(C)c2c1N  13.9%
16. CCOc1cc(/C=N/NC(=O)Cn2nc([N+](=O)[O-])cc2C)ccc1OCc1ccc(F)cc1  13.3%
17. CC1=CC(C)(C)N(C)C(=O)N1c1ccc(Cl)cc1  13%
18. COc1ccccc1Cn1nnc2c(=O)[nH]c(C3CCN(C(=O)c4ccccc4Cl)CC3)nc21  12.9%
19. Cc1ccc(C(=O)N2CCN(c3ncccn3)CC2)cc1  12.6%
20. O=C(Cn1c(=O)c2cccn2c2ccccc21)NCCc1ccc(Cl)cc1  12.2%
21. Cc1cc(=O)oc(C)c1C(=O)NCc1ccco1  12%
22. CCN(CC(=O)Nc1ccc2c(c1)OCCO2)C(=O)C(C)Oc1ccc(Cl)cc1 (stereo not drawn)  11.8%
23. Cc1cccc(NC2=C/C(=N/S(=O)(=O)c3cccs3)c3ccccc3C2=O)c1  11.6%
24. Cc1ccc(S(=O)(=O)N2CCN(CCC#N)CC2)cc1  10.7%
25. COc1ccc(OC)c(/C=N/NC(=O)C(=O)N2CCCCCC2)c1  10.5%
26. O=C(O)c1cccc(NC(=O)c2ccc(CN3C(=O)c4ccccc4C3=O)cc2)c1  10.5%
27. CCn1c(Cc2ccccc2)nnc1SCC(=O)Nc1nc(C)c(C)s1  9.3%
28. CC(=O)c1ccc(OCCCC(=O)OCC(=O)Nc2ccc3[nH]c(=O)[nH]c3c2)cc1  8.89%
29. O=S(=O)(Nc1cccnc1)c1ccccc1  7.82%
30. CC(=O)NC(CCS(C)(=O)=O)C(=O)Nc1cccc(C(C)=O)c1 (stereo not drawn)  7.75%
31. O=C(Cc1cc2ccccc2o1)NCc1ccc(F)cc1  6.51%
32. CCOC(=O)/C(N=Nc1c(Br)cc(Br)cc1Br)=C(\C)O  6.47%
33. CCOC(=O)c1c(NC(=O)CSc2nnc(-c3cccnc3)o2)sc(C)c1C  6.19%
34. C=CCn1c(SCc2c(F)c(F)c(F)c(F)c2F)nc(O)cc1=O  5.4%
35. COCCN(C(=O)CN1CCc2ccccc21)c1c(N)n(Cc2ccccc2)c(=O)[nH]c1=O  5.33%
36. CC1CCCN(Cc2csc(N)n2)C1 (stereo not drawn)  5.03%
37. CCc1ccc(NC(=O)CCN2C(=O)c3cccnc3C2=O)cc1  4.78%
38. COC(=O)c1cccc(NC(=O)N2C[C@H]3C[C@@H](C2)c2cccc(=O)n2C3)c1  4.71%
39. CN(C)S(=O)(=O)c1ccc(-c2csc(N/N=C/c3ccco3)n2)cc1  4.24%
40. CC(=O)O[C@@H]1[C@H]2CC[C@@H]3[C@]1(C[C@@H](OC(C)=O)[C@@]1(O)C([C@@H]4O[C@@H]4C1(C)C)[C@]3(C)O)C[C@@]2(C)O (stereo partly drawn)  3.96%
41. Oc1ccc(-c2nc3ccc4ccccc4c3c3c2CCC3)cc1O  3.49%
42. O=C(NCCc1ccccc1)C1CC(=O)N(C2CCCCCC2)C1 (stereo not drawn)  3.33%
43. CCc1ccc(NS(=O)(=O)c2ccc3[nH]cc(C(=O)N4CCc5ccccc54)c(=O)c3c2)cc1  2.85%
44. COc1ccc(/C=N/NC(=S)NC2CCS(=O)(=O)C2)cc1OC (stereo not drawn)  2.77%
45. C/C(Cc1ccccc1)=N\NC(=O)CNC(=O)c1cccc(F)c1  2.42%
46. CC(=O)Nc1c(C)nn(-c2ccc(C)c(C)c2)c1C  2.17%
47. COC(=O)c1ccc(-c2ccc(CNCC(O)c3ccccc3)o2)cc1.Cl (stereo not drawn)  1.63%
48. OCCN1CCOCCOc2ccccc2OCCOCC1  1.57%
49. CN1CCN(C(=O)/C(=C/c2cn(S(=O)(=O)N(C)C)c3ccccc23)NC(=O)c2ccccc2)CC1  0.665%
50. N#Cc1cccc(S(=O)(=O)NCC(=O)NCCCc2ccccc2)c1  0.461%
51. O=C(Nc1ccc(N2CCN(C(=O)c3cccs3)CC2)cc1)c1ccccc1F  -0.953%
52. CC(C)CN(C(=O)CCNC(=O)c1ccccc1Cl)C1CCS(=O)(=O)C1 (stereo not drawn)  -1.75%
53. O=C(Cc1ccc(Br)cc1)Nc1ccc(S(=O)(=O)NCC2CCCO2)cc1 (stereo not drawn)  -2.27%
54. COCCOc1cc(-n2cccc2)c(Cl)cc1Cl  -2.33%
55. CC(/C=C/c1ccc(OCc2ccccc2)cc1)=N\O  -2.94%
56. CCc1ccc(NC(=O)CSc2nnc(SCC(=O)Nc3ccc(CC)cc3)n2N)cc1  -3.06%
57. CCN(c1ccccc1)S(=O)(=O)c1ccc(OC)c(NC(=O)c2cccs2)c1  -3.51%
58. C=CCNC(=S)N1CCN(S(=O)(=O)c2ccc(C)cc2)CC1  -5.13%
59. COc1cccc(C(=O)NCc2ccc(N3CCN(C(=O)OC(C)(C)C)CC3)cc2)c1  -5.42%
60. C/C(=N\Nc1cccc2cccnc12)c1ccc(C)cc1  -5.89%
61. COc1cc2c(cc1OC)CN(Cc1cc(=O)n3c(-c4ccccc4)csc3n1)CC2  -6.01%
62. COc1ccc(NC(=O)c2cccnc2SC)cc1S(=O)(=O)N1CCCCC1  -8.17%
63. CCN(CC)c1ccc(-n2c(O)c(C=C3N=c4ccccc4=N3)sc2=S)cc1  -8.82%
64. O=C(Cn1ncc2ccsc2c1=O)N1CCC2(CC1)OCCO2  -9.23%
65. NC(=O)c1cc([N+](=O)[O-])ccc1NCc1cccc([N+](=O)[O-])c1  -9.38%
66. COc1cc(SC)ccc1C(=O)N(Cc1ccccc1)c1ccccn1  -10.2%
67. CCN(CC)c1ccc(/C=C2\C(=O)NC(=S)N(C)C2=O)o1  -11.4%
68. CCN1CCN(c2nc(Nc3ccc(NC(C)=O)cc3)nc(Nc3ccc(NC(C)=O)cc3)n2)CC1  -11.5%
69. Cc1c(C(=O)C(=O)N2CCOCC2)c2ccccc2n1Cc1ccccc1  -12.5%
70. c1csc(CN2CCN(Cc3cccs3)C2c2cccs2)c1  -14.3%
71. Cc1ccc(C(=O)CN2CCC(NC(=O)C3CCCCC3)CC2)cc1  -15.3%
72. CC1=C(C(=O)OCc2ccccc2)C(c2ccccc2)NC(=O)N1CCCC(=O)O (stereo not drawn)  -15.9%
73. COC(=O)C1CCN(C(=O)c2ccc3oc(Cc4ccc(Cl)cc4)nc3c2)CC1  -20.5%
74. COc1ccc2c(C(=O)CN3CCC(C)CC3)c[nH]c2c1  -20.6%
75. Cn1c(=O)c2c(nc(SCC(=O)NC34CC5CC(CC(C5)C3)C4)n2C)n(C)c1=O  -21.8%
76. CCOc1ccc2c(c1)C(N(CCN1CCOCC1)C(=S)Nc1ccccc1OC)CC(C)(C)O2 (stereo not drawn)  -24.9%
77. c1ccc2oc(SCc3cn4ccccc4n3)nc2c1  -25.3%
78. Cc1nn(-c2ccc(F)cc2)c(Cl)c1C(=O)NCC1CCCO1 (stereo not drawn)  -26.3%
79. COc1ccc(CCNC(=O)c2cccc(S(=O)(=O)N3CCCCCC3)c2)cc1  -26.5%
80. CC1CN(C(=O)c2cccc(S(=O)(=O)N3CCN(c4ccccc4)CC3)c2)CC(C)O1 (stereo not drawn)  -29.9%
81. O=C(COc1ccc(Cl)cc1)N1CCN(Cc2ccccc2)CC1  -32.9%
82. CCCCN(CC)CCNC(=O)C1CCCN(S(=O)(=O)c2cccc3nsnc23)C1 (stereo not drawn)  -33.8%
83. Cc1ccc(N(CC(=O)NC2CCCCC2)C(=O)Cn2nnc(-c3ccc(C)o3)n2)cc1  -35.3%
84. O=C1c2ccsc2SCCN1Cc1c(Cl)cccc1Cl  -41.9%
85. COc1cccc(N=Nc2ccc3cccnc3c2O)c1  -47.7%
86. COc1ccccc1CNC(=O)CSc1nc2ccccc2c(=O)n1CCCN1CCOCC1  -56%
87. CC(C)OCCCn1c(=NC(=O)c2ccncc2)c(C#N)cc2c(=O)n3ccccc3nc21  -74.2%
